Laboratory results taken from the supplement of paper PMC10126150.
Values marked as one replicate rest on one cluster of the flow cell; about a third of the high ones do not repeat.

What follows are sequences tested on ATP (assay: switch fluorescence ratio, 500 uM ATP over buffer (Cy3 cluster intensity, sum of 5 cycles each) (fold (ratio)); higher = stronger signal-on switching upon ATP binding; sequences stand for … in TCGTCGGCAGCGTCAGATGTGTATAAGAGACAGTTTTTTTTTTTTTTTTTTTTTTTTT…TC). Details: aptamer strand: ATP DNA aptamer (quencher-CACCTGGGGGAGTATTGCGGAGGAAGG + anchor), 100 nM annealed; ATP concentration: 500 uM; one replicate.
Outline: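 Cy3-labelled switching-strand clusters on a modified Illumina MiSeq flow-cell were annealed to 100 nM quencher-labelled ATP aptamer and imaged first in selection buffer, then after 15 min with 500 uM ATP at 22 °C. NaOH stripping and re-annealing separated each of five buffer/ATP cycles, and clusters outside 100-1000 RFU were excluded. The fluorescence ratio sums target-cycle Cy3 intensity over buffer-cycle Cy3 intensity per cluster and averages it per switch-domain sequence.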
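Also: ATP exposure 15 min at 22 °C before imaging.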

| Sequence | switch fluorescence ratio |
| --- | --- |
| ATCATAGAGC | 0.915 |
| TGCAGTTCC | 1.13 |
| TGACTGCCTT | 1.03 |
| CGCTGAGGGC | 1 |
| TACTGTCTAT | 1.03 |
| GGAGCCTCGA | 0.97 |
| GGTTGACCTC | 1.03 |
| CACTCCAGCA | 2.68 |
| CCCTGGCTGG | 0.971 |
| AAATGTACCT | 1.47 |
| CATAGACACC | 1.04 |
| CTATGAAGCG | 0.982 |
| CATTCGAGGG | 0.973 |
| CACTTGACAT | 1.11 |
| CACTTGGATG | 0.998 |
| CGACCGCACT | 3.79 |
| TACCTTTCGT | 1.15 |
| TTACCTGTGG | 0.952 |
| TTAGTGTGGC | 0.985 |
| GGTTGGAT | 0.983 |
| CGTTTGCAAC | 1.3 |
| GATGGCGCC | 0.995 |
| GCTTGCTTTG | 0.982 |
| GCTTTGATAC | 1.37 |
| CACATAATGT | 1 |
| TTTTTTAGG | 1.03 |

| Sequence | switch fluorescence ratio |
| --- | --- |
| ATAAGGGAGC | 0.949 |
| ATGTGGGATC | 1.02 |
| TATTAGTCCC | 1.03 |
| CTACGGATC | 1.48 |
| GTCCCAGCTC | 1.07 |
| CAGCTTTGGG | 1.03 |
| TGACGTCTAG | 1.02 |
| TGATGGAAAC | 0.986 |
| TGGCTCACTA | 1 |
| AAACGGACAC | 1.23 |
| TTTGTCAAGA | 1.02 |
| AACGTGATCG | 1 |
| TGAGAGGCTG | 0.998 |
| TAAGCTTCGC | 1 |
| AAGGCGACGC | 1.01 |
| TCTACAGCA | 1.22 |
| CCCCTGTGGC | 1.17 |
| GACGGATCGG | 0.996 |
| TCTGATCTAC | 1.1 |
| TGAAGTTCAA | 0.969 |
| TTCAAAAGTG | 0.967 |
| TTACGCAGGG | 1.03 |
| TGAGTATCAT | 0.974 |
| TTACCCGTAA | 1.59 |
| GGCGTGTATT | 1 |
| TCTTTCTTG | 0.964 |

| Sequence | switch fluorescence ratio |
| --- | --- |
| AAAGGCATG | 1.05 |
| GCCTCTTACG | 1.04 |
| ATATTCGAT | 1.01 |
| CTATGTAGGA | 1 |
| ACAGTCCCGT | 1.04 |
| CGGGGGTAT | 0.972 |
| CTTTGATATG | 1.02 |
| CACGCGAATA | 1.61 |
| GGTGAACTCT | 1.02 |
| GTTAATTCTA | 0.982 |
| GCTGGTCTGT | 1.04 |
| GTTCAAAAGT | 1.02 |
| TTAGACTGGG | 1.06 |
| CATACGGTCA | 1.06 |
| AGGAGTGAAG | 1.03 |
| TTTCTCACTT | 1.04 |
| CCAGGCATGG | 1.02 |
| AAACGTTCCT | 3.78 |
| AATCGTATGA | 0.951 |
| TTTCTACTTA | 1.08 |
| TGGCATGGTG | 1.02 |
| TTACGTAGTA | 0.973 |
| GTTTTGCTTT | 0.929 |
| ATACATTTAA | 1 |
| ACAAGGGTGT | 0.98 |
| TTCTGTTTCG | 0.998 |

| Sequence | switch fluorescence ratio |
| --- | --- |
| GAAATAAGGG | 1.02 |
| CCTAGCTTGA | 1.05 |
| TGACTCACC | 1.54 |
| CCTACCCGGG | 1.06 |
| TTCCCAGGGT | 1.85 |
| AATTCACTCT | 1.02 |
| TTGAGGAAAA | 0.992 |
| GGGTAGTGCC | 1 |
| ATATTCGCTG | 1 |
| TTCATGCAGT | 1.01 |
| CACGTAGGCC | 1.04 |
| CCCGGGACTT | 1.01 |
| TTCGGACTCC | 1.28 |
| GAGAATTTT | 0.938 |
| CTCGACGGTC | 1.04 |
| ACCGTTAAAA | 1.01 |
| ATTCCCTAGA | 0.945 |
| ATCTCGTCAC | 1.03 |
| ATGAGATGAG | 1 |
| GCGATAGTTT | 1.05 |
| TCTCGAATGT | 1.05 |
| AAAATGCGAC | 1.09 |
| TCTCCCATCT | 1.44 |
| AGCTCCACGT | 1.14 |
| AGCCAATCCA | 1 |
| CCTCACCGTC | 1.36 |

| Sequence | switch fluorescence ratio |
| --- | --- |
| AACACGGAGG | 1 |
| CGGGTGCGTC | 0.999 |
| GCTACTGAAC | 1.19 |
| TTAGGGGTT | 0.99 |
| GCGGGGTGTA | 0.984 |
| CTGGTTTAAG | 0.981 |
| AACTTTAAGC | 1.03 |
| AAATGTTATG | 1.01 |
| CATTTCATAA | 1 |
| ATAGCTGTAG | 1.03 |
| GATCTTCGGG | 0.986 |
| ATCTGTAGTT | 0.969 |
| ATCGGGCCAG | 0.965 |
| TAGAGATTCT | 1 |
| CGGTAAATTC | 1.12 |
| ATGTCGTGAA | 0.995 |
| GCAAGAGA | 1.02 |
| AATATCGCCG | 1.05 |
| TTACATCCGT | 1.09 |
| TCCACGGCAT | 2.51 |
| ATTCGGGAAA | 1.02 |
| TGGATCACGA | 1.03 |
| TTCCTATTCC | 1.15 |
| TTTCATCAGC | 1.06 |
| ATAACCAAGA | 1.08 |
| CCAAATGA | 0.993 |

| Sequence | switch fluorescence ratio |
| --- | --- |
| GGAGCGCCAT | 0.994 |
| AAAAGGTTCG | 1.02 |
| AAAATGTACG | 0.941 |
| CCAGTTAATG | 0.984 |
| CGTCCACCTC | 1.08 |
| GCTCTTAGTA | 1 |
| ATCACGACCG | 1.11 |
| AACTGCGTTG | 0.946 |
| TCTGTGCGTA | 0.985 |
| ACGGAGTTGC | 1.2 |
| TGATCTTTAT | 0.972 |
| CACCTGCGGT | 1.02 |
| CGGTACGTGG | 0.99 |
| ATATCACACA | 1.08 |
| ACAACGGCTG | 1.01 |
| ACCTTTTAAT | 1.03 |
| GCAGTTCAAC | 0.998 |
| TGGTCCCCGA | 0.996 |
| GTCGTTCGTA | 0.996 |
| GACGTGTAGC | 1.08 |
| AAGCCGACAC | 1.15 |
| GCAAGAGTCG | 1.25 |
| TATATTTATC | 0.953 |
